Inconclusive means that the source gave no clear call. Such entries were picked first, then a sample of the others. Entries that show only a call come without a potency. Where the call is inconclusive, the potency comes from a doubtful curve fit. Calls of active or inactive are those of the source. The call rests on the fitted dose curve; in most records, active means well fitted inhibition curve with a large enough effect; inconclusive means small, poorly fitted or top-dose-only effect; inactive means no such curve, though single readings can be large or run the other way.
target: Retinaldehyde dehydrogenase 3 (Homo sapiens) (UniProt P47895); test: qHTS for Inhibitors of the Aldehyde Dehydrogenase Family (ALDH1A3) Primary screen (AID 2061315); conditions: ALDH inhibition qHTS; series mostly up to 56 µM
Potency means the concentration at half of the fitted maximal effect; tags describe the fitted curve by direction and shape.

| Compound | Potency |
| --- | --- |
| C/C1=C\CC[C@H](C)CCO[C@@H]2O[C@H](CO[C@@H]3OC[C@](O)(COC1=O)[C@H]3O)[C@@H](O)[C@H](O)[C@H]2O | inactive |
| CC(C)COc1ccc(-c2csc(N3CCC(C(N)=O)CC3)n2)cc1 | inactive |
| CC(=O)N1CCN([C@H]2CCN(C(=O)N(C)[C@H](C)c3cc(C(F)(F)F)cc(C(F)(F)F)c3)[C@@H](c3ccc(F)cc3C)C2)CC1 | inactive |
| COc1cc(/C=C/C=O)cc(OC)c1O[C@@H]1O[C@H](CO)[C@@H](O)[C@H](O)[C@H]1O | inconclusive: 5.01 µM [inhibitor, partial curve, poor fit] |
| COC(=O)N1CCC(n2ncc3c(N4CCOCC4)nc(-c4ccc(NC(=O)Nc5ccc(CO)cc5)cc4)nc32)CC1 | inactive |
| CC(C)(C)OC(=O)NCc1nnc(-c2cc3ccccc3[nH]2)o1 | inactive |
| O=C(Nc1nc(-c2ccccc2)cs1)c1ccncc1NS(=O)(=O)c1ccc(-c2ccccc2)cc1 | inactive |
| COc1ccc([C@@H]2OC[C@H]3[C@@H]2CO[C@@H]3c2ccc(OC3OC(CO)C(O)C(O)C3O)c(OC)c2)cc1OC (some centres undefined) | inconclusive: 3.98 µM [inhibitor, partial curve, poor fit] |
| C=C1CCC[C@]2(C)CC[C@@](O)(C(=C)C(=O)O)C[C@@H]12 | inactive |
| COc1cc(O)cc(O[C@@H]2O[C@H](CO)[C@@H](O[C@@H]3OC[C@](O)(CO)[C@H]3O)[C@H](O)[C@H]2O)c1OC | inconclusive: 8.91 µM [inhibitor, partial curve, poor fit] |
| COc1ccnc(NC(=S)N2CCN(c3ncc(C(F)(F)F)cc3Cl)CC2)c1 | inactive |
| Cc1nc(N)sc1-c1ccnc(Nc2ccc(N3CCOCC3)cc2)n1 | inconclusive: 3.55 µM [inhibitor, single point] |
| FC(F)(F)c1ccc(N2CCN(C(=S)Nc3ccccn3)CC2)cc1 | inconclusive: 2.24 µM [inhibitor, partial curve, poor fit] |
| COc1ccc(O)c(-c2nc3ccccc3c(=O)n2Cc2ccccc2)c1 | inconclusive: 2 µM [inhibitor, full curve, poor fit] |
| Cc1nc(CNc2ncnc3ccc(-c4ccc(CO)o4)cc23)cs1 | inactive |
| OC[C@H]1O[C@@H](Oc2cc(O)cc(-c3cc4ccc(O[C@@H]5O[C@H](CO)[C@@H](O)[C@H](O)[C@H]5O)cc4o3)c2)[C@H](O)[C@@H](O)[C@@H]1O | inconclusive: 7.08 µM [inhibitor, partial curve, poor fit] |
| CC(C(O)c1ccc(O)cc1)N1CCC(Cc2ccccc2)CC1 (centres undefined) | inactive |
| O=C(O[C@H]1[C@@H]2C[C@@H]3OC[C@](O)([C@@H]1Cl)[C@H]2C(O[C@@H]1O[C@H](CO)[C@@H](O)[C@H](O)[C@H]1O)O3)c1ccc(O)c(O)c1 (some centres undefined) | inconclusive: 1.12 µM [inhibitor, full curve] |
| CCC(=O)NC(c1ccco1)c1cc(Cl)c2ccccc2c1O (centres undefined) | inconclusive: 8.91 µM [inhibitor, partial curve, poor fit] |
| Cc1ccc(S(=O)(=O)Nc2cccc3cccnc23)c([N+](=O)[O-])c1 | inconclusive: 25.1 µM [inhibitor, partial curve, poor fit] |
| Cc1cccc(C)c1SC1=NS(=O)(=O)c2ccccc21 | inconclusive: 0.141 µM [inhibitor, full curve, poor fit] |
| COc1cc(C(=O)O)ccc1OC1OC(CO)C(O)C(O)C1O (centres undefined) | inconclusive: 11.2 µM [inhibitor, single point] |
| COc1cccc(-c2nc(-c3cccc(C(=O)O)c3)no2)c1 | inconclusive: 0.251 µM [inhibitor, full curve, poor fit] |
| Cc1cn2cc(CC(=O)N3CCC4(CC3)CN(Cc3ccc(-n5nccn5)cc3Cl)C4)nc2s1 | inactive |
| Cc1cc2c(cc1C1(c3ccc(C(=O)O)cc3)CC1)C(C)(C)CCC2(C)C | inactive |
| CCn1cc(NC(=S)Nc2cc(Cl)ccc2OC)c(C(N)=O)n1 | inactive |
| Fc1ccccc1CNCc1ccc(-c2ccnc3[nH]ccc23)cc1 | inactive |
| CC(=O)[C@H]1CC[C@H]2[C@@H]3C=CC4=CC(=O)CC[C@@]4(C)[C@@H]3CC[C@]12C | inactive |
| COc1ccc2nc(-c3cccc(C)c3)sc2c1 | inconclusive: 6.31 µM [inhibitor, partial curve] |

Reference: PubChem BioAssay (NCATS)
